Reference: PMC8664900
These are yes or no findings as the source states them, for the method shown. For some of these results: In cells and extracts the contact can be indirect. Some results given as binding are weak or reduced against the parent protein; the word gives no strength. Sequences can lack the tags named with a protein.

Experiments:
[1] = target: T1, ot-Vac8∆N-mTagBFP2 (Atg19^152–191-Vac8^19–578-mTagBFP2) (S. cerevisiae) (UniProt P39968); experiment: recruitment of GFP-tagged prey to oligomer-tethered bait (live-cell fluorescence microscopy); bait fused to the ot peptide and clustered on cytosolic Ape1 oligomers in atg19∆ vac8∆ yeast; cells with GFP puncta counted; only the bait is clustered
T1 sequence: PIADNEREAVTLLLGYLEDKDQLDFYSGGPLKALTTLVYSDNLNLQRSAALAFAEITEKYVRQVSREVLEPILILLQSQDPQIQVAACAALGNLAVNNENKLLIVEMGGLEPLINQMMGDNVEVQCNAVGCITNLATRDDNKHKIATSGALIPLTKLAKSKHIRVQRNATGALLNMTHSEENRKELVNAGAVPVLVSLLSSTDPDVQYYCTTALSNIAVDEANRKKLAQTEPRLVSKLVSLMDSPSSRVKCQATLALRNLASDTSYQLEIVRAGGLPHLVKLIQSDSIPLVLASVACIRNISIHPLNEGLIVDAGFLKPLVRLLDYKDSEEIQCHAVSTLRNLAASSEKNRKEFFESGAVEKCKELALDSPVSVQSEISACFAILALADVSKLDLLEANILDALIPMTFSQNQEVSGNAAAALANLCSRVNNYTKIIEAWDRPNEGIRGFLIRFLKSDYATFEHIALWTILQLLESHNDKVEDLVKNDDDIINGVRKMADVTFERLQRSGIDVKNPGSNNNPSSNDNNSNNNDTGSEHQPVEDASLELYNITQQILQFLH

[2] = target: T2, ot-Vac8∆N-GFP (S. cerevisiae) (UniProt P39968); experiment: association of oligomer-tethered bait puncta with µNS particles (live-cell fluorescence microscopy); ot-Vac8∆N-GFP on Ape1 oligomers and Atg11-BFP-µNS particles coexpressed in atg13∆ atg19∆ vac8∆ yeast; both partners clustered; BFP puncta overlapping with GFP puncta counted
T2 sequence: T1 sequence

[3] = target: T3, GST-Vac8 (S. cerevisiae) (UniProt P39968); experiment: pull-down; GST fusion from E. coli bound to Glutathione Sepharose 4B beads, incubated 1 h at 4 °C with cleared Sf9 lysate containing 8xHis-Atg11; anti-Atg11 western blot; only the target purified
T3 sequence: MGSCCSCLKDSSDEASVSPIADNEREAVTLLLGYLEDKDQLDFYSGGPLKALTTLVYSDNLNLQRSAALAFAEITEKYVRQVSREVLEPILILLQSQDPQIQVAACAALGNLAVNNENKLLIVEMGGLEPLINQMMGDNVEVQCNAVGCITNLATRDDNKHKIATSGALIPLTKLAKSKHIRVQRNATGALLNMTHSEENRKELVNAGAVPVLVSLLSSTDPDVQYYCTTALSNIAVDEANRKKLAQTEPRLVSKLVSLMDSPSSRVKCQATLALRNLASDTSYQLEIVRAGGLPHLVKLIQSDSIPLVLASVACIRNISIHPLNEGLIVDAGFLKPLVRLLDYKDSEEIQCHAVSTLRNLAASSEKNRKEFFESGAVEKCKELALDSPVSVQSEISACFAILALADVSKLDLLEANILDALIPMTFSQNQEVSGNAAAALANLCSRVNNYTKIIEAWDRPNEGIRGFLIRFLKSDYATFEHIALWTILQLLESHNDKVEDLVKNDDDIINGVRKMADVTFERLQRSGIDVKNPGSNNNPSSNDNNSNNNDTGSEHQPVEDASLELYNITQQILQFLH

[4] = target: T4, GST-Atg19^3D (S390D, S391D, and S396D) (S. cerevisiae) (UniProt P35193); experiment: as above
T4 sequence: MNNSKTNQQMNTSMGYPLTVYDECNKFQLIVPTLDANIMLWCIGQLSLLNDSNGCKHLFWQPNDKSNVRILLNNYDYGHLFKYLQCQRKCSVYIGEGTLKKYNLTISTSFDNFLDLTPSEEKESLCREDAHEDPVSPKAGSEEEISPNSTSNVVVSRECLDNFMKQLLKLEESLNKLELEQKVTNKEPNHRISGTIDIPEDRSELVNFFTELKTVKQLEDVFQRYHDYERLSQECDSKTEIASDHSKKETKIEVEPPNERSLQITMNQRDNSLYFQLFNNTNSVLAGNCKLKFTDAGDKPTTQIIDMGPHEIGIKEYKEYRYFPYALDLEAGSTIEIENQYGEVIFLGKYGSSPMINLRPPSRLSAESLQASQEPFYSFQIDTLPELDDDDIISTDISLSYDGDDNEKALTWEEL

B1: Vps15-GFP (protein, UniProt P22219 1-1454)
chain: MGAQLSLVVQASPSIAIFSYIDVLEEVHYVSQLNSSRFLKTCKALDPNGEIVIKVFIKPKDQYSLRPFLQRIRAQSFKLGQLPHVLNYSKLIETNRAGYMIRQHLKNNLYDRLSLRPYLQDIELKFIAFQLLNALKDIHNLNIVHGDIKTENILVTSWNWCILTDFAAFIKPVYLPEDNPGEFLFYFDTSKRRTCYLAPERFNSKLYQDGKSNNGRLTKEMDIFSLGCVIAEIFAEGRPIFNLSQLFKYKSNSYDVNREFLMEEMNSTDLRNLVLDMIQLDPSKRLSCDELLNKYRGIFFPDYFYTFIYDYFRNLVTMTTSTPISDNTCTNSTLEDNVKLLDETTEKIYRDFSQICHCLDFPLIKDGGEIGSDPPILESYKIEIEISRFLNTNLYFPQNYHLVLQQFTKVSEKIKSVKEECALLFISYLSHSIRSIVSTATKLKNLELLAVFAQFVSDENKIDRVVPYFVCCFEDSDQDVQALSLLTLIQVLTSVRKLNQLNENIFVDYLLPRLKRLLISNRQNTNYLRIVFANCLSDLAIIINRFQEFTFAQHCNDNSMDNNTEIMESSTKYSAKLIQSVEDLTVSFLTDNDTYVKMALLQNILPLCKFFGRERTNDIILSHLITYLNDKDPALRVSLIQTISGISILLGTVTLEQYILPLLIQTITDSEELVVISVLQSLKSLFKTGLIRKKYYIDISKTTSPLLLHPNNWIRQFTLMIIIEIINKLSKAEVYCILYPIIRPFFEFDVEFNFKSMISCCKQPVSRSVYNLLCSWSVRASKSLFWKKIITNHVDSFGNNRIEFITKNYSSKNYGFNKRDTKSSSSLKGIKTSSTVYSHDNKEIPLTAEDRNWIDKFHIIGLTEKDIWKIVALRGYVIRTARVMAANPDFPYNNSNYRPLVQNSPPNLNLTNIMPRNIFFDVEFAEESTSEGQDSNLENQQIYKYDESEKDSNKLNINGSKQLSTVMDINGSLIFKNKSIATTTSNLKNVFVQLEPTSYHMHSPNHGLKDNANVKPERKVVVSNSYEGDVESIEKFLSTFKILPPLRDYKEFGPIQEIVRSPNMGNLRGKLIATLMENEPNSITSSAVSPGETPYLITGSDQGVIKIWNLKEIIVGEVYSSSLTYDCSSTVTQITMIPNFDAFAVSSKDGQIIVLKVNHYQQESEVKFLNCECIRKINLKNFGKNEYAVRMRAFVNEEKSLLVALTNLSRVIIFDIRTLERLQIIENSPRHGAVSSICIDEECCVLILGTTRGIIDIWDIRFNVLIRSWSFGDHAPITHVEVCQFYGKNSVIVVGGSSKTFLTIWNFVKGHCQYAFINSDEQPSMEHFLPIEKGLEELNFCGIRSLNALSTISVSNDKILLTDEATSSIVMFSLNELSSSKAVISPSRFSDVFIPTQVTANLTMLLRKMKRTSTHSVDDSLYHHDIINSISTCEVDETPLLVACDNSGLIGIFQ
binding [1]: binds

B2: Atg11-mTagBFP2-µNS (protein, UniProt Q12527 1-1178)
chain: MADADEYSTAPTQQEITPLQTTATIINAISGECITTNVDFFVSLDKFKQFIARKWKIPPDQLLILLPYGNKLKPSMFKELLINRSFTLNDFYVYDRRLFSLVSKPTPTNLLTSKDSNPMNSPNSNDLTETLEYLIKNSHISQYQGSDTIMIKPMPSPLEDADVDLSRLNYHSVTSLLTTNLGWLSALEIDVHYFKSLIPDIIAHIKRIFDGLTVCSQYLKLYCFDVESLYNSNVQFLNQLVDNGMTSKWEKCFNDTLSKLTALEGDSLQKFINIESLLENEKSVKILNHSINGKLNKIKREIDENASFRDIITVNIDRLRQMFTPNESKFELEDQMAESFEVLVSEMRTRSRNVLDKEEEEFNSQEFLKSMNVMLEKDKKESVKTLFTISQALYSQIGELIDLKKSLQKHAVAILGNIAFTQMEILGIKRLLLNECNKDLELYKKYEVEFAQVEDLPLIYGLYLIEKYRRLSWFQQILSFISNFNQDLELFKQNELRTRNKWVKNFGSIATVFCEDLLSSSDFKRLNEYHSHTSPPNEDEEDENENSIANYRQDLVKVSQAIDNYMTQIKETDVSEPIIDLLSKTLFETKRFHIIYSNFKNNNNNSSNGNSISPEGSIALKSDDVVKGYKTRIKKLESLLHEFQYSDIGHWPQGVLNTHLKPFRGSATSINKKKFLGASVLLEPANISEVNIDSVSQANNHQIQELESNVDDLLHQLQLLKEENNRKSMQISEMGKKISDLEVEKTAYRETLTNLNQELARLTNEEQSHRTEIFTLNASFKKQLNDIISQDNEKIEKLTGDYDDVSKSRERLQMDLDESNKKHEQEVNLLKADIERLGKQIVTSEKSYAETNSSSMEKGEKFETIPLAEDPGRENQISAYTQTLQDRIFDIISTNIFILENIGLLLTFDNNNNIQIRRVKGLKKGTAQSNILDESTQMLDAHDNSLIKSPVFQKLKDEYELIKSVANGSEKDTQQSIFLGNITQLYDNKLYEVAVIRRFKDIETLAKKLTKENKIKRTLLERFQREKVTLRNFQIGDLALFLPTRENVNSVGSMSSSTSSLSSSFSSVDLSTPPPLDAMSIQSSPSVIHSNVINQASISGRDKNKLMRPWAAFTAFEESTRYFLKDEKGLTKGKEWFVGRIVTLEHFVADSPSNNPFRLPKGSVWFQVTAVVVSYQGV
binding [2]: binds

B3: 8xHis-Atg11 (protein, UniProt Q12527 1-1178)
chain: B2 chain
binding [3]: binds weakly | binding [4]: binds
